From PubChem BioAssay AID1963576 (National Center for Advancing Translational Sciences (NCATS), 2024)
Out of some 46,000 compounds screened, about 60 (0.1%) were called active. Inconclusive results (about 3%) are left out. Calls come from the whole dose curve; as a rule, active = well fitted inhibition curve with a large enough effect; inconclusive = small, poorly fitted or top-dose-only effect; inactive = no such curve, though single readings can be large or run the other way. The list shows a part of the results.

Test: Primary qHTS assay for Inhibitors of ovarian cancer metastasis using an organotypic tumor microenvironment (TME) model.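 For activity change, negative = inhibition: plate controls were DMSO wells for no effect and tomatine positive control wells for full effect.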 Note: nearly all actives have a fitted effect of over 65% in size.
Conditions: SKOV3ip1-GFP adhesion/invasion on 3D omental model, fluorescence; series mostly up to 45.8 µM; activity change, negative = inhibition: at the top concentration
In short: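 Primary human omental fibroblast/mesothelial 3D culture pre-formed 48 h. SKOV3ip1-GFP cells added with compounds (0.36-46 umol/L), incubated 2 h RT/16 h 37 C, fixed; GFP cells quantified at 488/509 nm.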

Row | SMILES | outcome | activity change, negative = inhibition
1 | CCc1ccc(C(=O)c2cn(CC(=O)Nc3cccc(OC)c3)c3cc4c(cc3c2=O)OCO4)cc1 | inactive | 
2 | O=C(CSc1nnc(-c2ccc(Cl)cc2)o1)c1ccc([N+](=O)[O-])cc1 | inactive | 
3 | O=C(c1ccccc1Br)N(Cc1ccco1)Cc1ccco1 | inactive | 
4 | CCn1c(SCc2c(F)cccc2Cl)nc(=O)c2c(C(=O)OC)cc(C3CC3)nc21 | inactive | 
5 | CCc1nn2c(=O)cc(COC(=O)c3ccccc3)nc2s1 | inactive | 
6 | CCOC(=O)CNC(=O)N1CCCN(S(=O)(=O)c2ccc3c(ccn3CC)c2)CC1 |  | inactive: -11.5%
7 | Cc1ccc(-c2cc3ncc4c(n3n2)-c2cc(F)ccc2OC4)cc1 |  | inactive: 46.1%
8 | CCOc1ccccc1NC(=O)N(Cc1ccc(C)o1)C1CCN(C(C)=O)CC1 |  | inactive: 0.757%
9 | COc1ccc(C)c2sc(N3CCN(C(=O)c4cccc(F)c4)CC3)nc12 |  | inactive: 7.96%
10 | COc1ccc(C)cc1NC(=O)C1CCN(S(=O)(=O)c2cc(Br)cc3c2N(C(C)=O)CC3)CC1 |  | inactive: 2.29%
11 | CCOc1ccc(NC(=O)N2CCN(c3nnc(C)c4c(C)n(-c5ccccc5)nc34)CC2)cc1 |  | inactive: 4.46%
12 | CCOC(=O)c1noc2ncn(CC(=O)Nc3cccc(C(F)(F)F)c3)c(=O)c12 | inactive | 
13 | CCc1nn(CC(=O)N2CCCCC2)c(=O)c2cc3occc3n12 | inactive | 
14 | CCCc1nnc(NC(=O)c2nc(SCC)ncc2Cl)s1 |  | inactive: -2.87%
15 | CCOC(=O)C1=C(CS(=O)(=O)c2ccc(F)c(C)c2)NC(=O)NC1c1ccccc1OC (centres undefined) |  | inactive: 6.19%
16 | COc1ccc(C)cc1NC(=O)C1CCCN(c2ncnc3onc(C)c23)C1 (centres undefined) |  | inactive: 0.325%
17 | O=c1c(=O)n(-c2ccc(F)c(F)c2)ccn1Cc1ccc(F)cc1Cl |  | inactive: 8.93%
18 | CCOc1ccccc1NC(=O)CN(C)S(=O)(=O)c1ccc(C(=O)N2CCOCC2)s1 |  | inactive: 16.4%
19 | CCC(C(=O)NCc1ccccc1OC)n1nc(C)n2c(cc3occc32)c1=O (centres undefined) |  | inactive: 6.13%
20 | Cc1oc(-c2ccccc2Cl)nc1CS(=O)(=O)CC(=O)NCc1ccc(F)cc1 |  | inactive: 9.85%
21 | Cc1ccc2c(=O)cc(C(=O)Nc3sc4c(c3C(=O)NCC3CCCO3)CCC4)oc2c1 (centres undefined) |  | inactive: 21.7%
22 | O=C(CC1N=C2c3ccccc3N=C(SCc3ccccc3Cl)N2C1=O)NCCc1ccccc1 (centres undefined) |  | inactive: -14%
23 | Cc1cc(Nc2cccc(Cl)c2)nc2ccc(NC(=O)c3cncc(Br)c3)cc12 | inactive | 
24 | CCOc1ccc(-n2nc3ccc(NC(=O)c4ccc(OC)c(Cl)c4)cc3n2)cc1 |  | inactive: 3.36%

Row | SMILES | outcome | activity change, negative = inhibition
25 | COc1ccc(-n2nc(C(=O)Nc3cc(C)ccn3)c3c4ccccc4n(C)c3c2=O)cc1 | inactive | 
26 | CCCCn1c(=O)n(-c2cc(OC)ccc2OC)c(=O)c2c3c(sc21)CN(C(C)=O)CC3 |  | inactive: 10.5%
27 | Cc1cc(C)cc(NC(=O)N2CCC(CN3CCOCC3)CC2)c1 |  | inactive: -6.29%
28 | O=C(CN1CCCN(Cc2ccccc2F)S1(=O)=O)Nc1ccc(F)c(Cl)c1 |  | inactive: -0.175%
29 | CC(C)NC(=O)N1[C@H](c2cccs2)[C@@H](C)C(=O)[C@@H](C)[C@@H]1c1cccs1 |  | inactive: -1.99%
30 | CCOC(=O)C1=C(CN2CCN(c3ccccc3OC)CC2)NC(=O)NC1c1ccccc1 (centres undefined) | inactive | 
31 | COc1ccc(C(=O)Nc2ccc(N(C)Cc3ccccc3)c(C(=O)O)c2)cc1 |  | inactive: -7.68%
32 | CCOC(=O)Cn1c(=O)n(CC2CCCO2)c2nc(-c3ccccc3)nc(C(N)=O)c21 (centres undefined) | inactive | 
33 | CCCCNC(=O)c1ccc2c(=O)n(Cc3ccc(OC)cc3)c(=O)[nH]c2c1 | inactive | 
34 | COC(=O)c1cc2oc(C)cc2n1CC(=O)Nc1ccc(C(C)C)cc1 |  | inactive: -1.91%
35 | CCc1cccc(C)c1NC(=O)Cn1nc(C)n2cccc2c1=O |  | inactive: -5.41%
36 | COCc1cc(C)nc2c1C(=O)NC(c1ccc(F)cc1)N2Cc1ccccc1 (centres undefined) |  | inactive: 0.492%
37 | Cc1ccc(CNCc2ccccc2Cl)s1 | inactive | 
38 | COc1ccc(-c2nnc(SCC(=O)NCCC(C)C)nc2-c2ccc(OC)c(OC)c2)cc1OC |  | inactive: 0.837%
39 | CCOC(=O)c1c(C)oc2nc(C)nc(NCC3CCN(Cc4ccc(C)cc4)CC3)c12 |  | inactive: 1.79%
40 | Cc1ccccc1CSc1cn(CC(=O)N2CCCCC2)c2ccccc12 |  | inactive: -8.2%
41 | CCOC(=O)C(C)Sc1ccc2nnc(CCNS(=O)(=O)c3ccc(C)cc3)n2n1 (centres undefined) | inactive | 
42 | N#Cc1c(C(F)(F)F)cc(-c2cccs2)nc1SCc1ccc(F)cc1 |  | inactive: -0.735%
43 | CC1=C(C(=O)NCc2cccc(F)c2)C2(CCCCC2)OC1=O |  | inactive: -11%
44 | CC1Cc2ccccc2N1C(=O)CSc1nc2ccc(NC(=O)COc3ccccc3)cc2s1 (centres undefined) | inactive | 
45 | CC(C)(C)c1ccc(C(=O)NCCc2csc(-c3ccc(Cl)cc3)n2)cc1 |  | inactive: 1.64%
46 | Cc1ccc(NC(=O)CCS(=O)(=O)c2ccc(Br)s2)c(Br)c1 |  | inactive: 2.26%
47 | CCOc1ccc(CCNC(=O)c2oc(=O)c3ccccc3c2-c2ccc(C)cc2)cc1OCC |  | inactive: -19.1%
48 | O=C(Nc1cccc(C(F)(F)F)c1)c1cnn(-c2cccc(F)c2)c1C1CCNCC1 | inactive | 

Row | SMILES | outcome | activity change, negative = inhibition
49 | Cc1nn(C)cc1CN(C)C(=O)c1cc(-c2ccccc2)nc2ccc(Br)cc12 |  | inactive: -11.6%
50 | CCOC(=O)c1ccc(CN(Cc2ccc(F)cc2)S(=O)(=O)c2ccc(F)c(C(=O)Nc3c(C)cccc3C)c2)cc1 |  | inactive: -14%
51 | COc1cccc(-c2nc(CS(=O)(=O)CC(=O)N3CCN(c4cc(C)ccc4C)CC3)c(C)o2)c1 | inactive | 
52 | CCc1ccc(C2CC(=O)c3c([nH]c(C(=O)OC4CCCC4)c3C)C2)cc1 (centres undefined) | inactive | 
53 | COc1ccc(C2NC(=O)N(C)C3=C2C(=O)N(c2ccc(C(=O)O)cc2)C3)cc1 (centres undefined) |  | inactive: 22.6%
54 | COc1ccc(OC)c(C2CC(=O)Nc3c2c(=O)[nH]c2ncnn32)c1 (centres undefined) |  | inactive: 6.85%
55 | CCc1ccccc1NS(=O)(=O)c1ccc2[nH]cc(C(=O)N(CC)Cc3ccccc3)c(=O)c2c1 |  | inactive: 2.58%
56 | CCCc1ccc(OCC(=O)Nc2sc(C(=O)OCC)c(C)c2C(=O)OCC)cc1 |  | inactive: -7.68%
57 | CSc1ncc(C(=O)NCc2ccccc2F)c(-c2ccccc2)n1 |  | inactive: 0.969%
58 | Cc1ccc(C)c(N2CCN(S(=O)(=O)c3ccc4c(c3)C(C(C)C)C(=O)N4)CC2)c1 (centres undefined) | inactive | 
59 | Cc1ccc2c(CNCc3ccc(C)o3)c(C(=O)O)n(Cc3ccccc3C)c2c1 |  | inactive: -2.66%
60 | COc1ccc(S(=O)(=O)Nc2c(C)nc3nc[nH]n3c2=O)cc1 |  | inactive: -2.6%
61 | CCOc1ccc(NC(=O)Cn2c(=O)n(CCCCCC(=O)NCc3ccccc3)c(=O)c3sccc32)cc1 |  | inactive: 6.21%
62 | COc1ccc(CNC(=O)c2cc3cc(OC)ccc3oc2=O)cc1 |  | inactive: 6.99%
63 | Cc1cc(C)c2c(CC(=O)Nc3ccc(S(=O)(=O)Nc4nc(C)cc(C)n4)cc3)coc2c1 |  | inactive: -1.64%
64 | CC(=O)N1CCCc2cc(S(=O)(=O)N3CCCC(C(=O)N4CCN(c5ccccc5)CC4)C3)ccc21 (centres undefined) |  | inactive: 3.96%
65 | Cc1ccc(S(=O)(=O)n2nc(-c3ccc(Cl)cc3)nc2NCc2ccc(F)cc2)cc1 | inactive | 
66 | Cc1cc(S(=O)(=O)C(CNC(=O)c2ccc(F)c(F)c2)c2cccs2)ccc1F (centres undefined) |  | inactive: -24.4%
67 | Cc1ccc(NC(=O)C(=O)NCC(c2cccnc2)N2CCN(Cc3ccccc3)CC2)cc1F (centres undefined) |  | inactive: -16.3%
68 | COc1ccc(-c2[nH]c(-c3ccc(Cl)cc3)nc2SCC(=O)NCC2CCCO2)cc1 (centres undefined) | inactive | 
69 | Cc1cccc(/C=C/c2onc(C)c2S(=O)(=O)N2CCC(C(=O)N3CCCCC3)CC2)c1 |  | inactive: 4.45%
70 | CCCCn1cnc2cc(NCc3ccccc3Cl)ccc21 |  | inactive: -15.5%
71 | CCCSCCCNC(=O)C1CCN(c2nc3ccccc3nc2C(F)(F)F)CC1 | inactive | 
72 | Cc1ccc(-n2ncc3c(Nc4cccc(C(=O)O)c4)ncnc32)cc1 |  | inactive: -7.46%

Row | SMILES | outcome | activity change, negative = inhibition
73 | O=S(=O)(NCCc1csc2nc(-c3ccccc3)nn12)c1cc(F)ccc1F | inactive | 
74 | COc1ccc2c(c1)cc1c(=O)n(CC(=O)NC(C)CCc3ccccc3)nc(C)n12 (centres undefined) |  | inactive: 5.55%
75 | CC[C@]1(O)C[C@H]2CN(CCC3=c4ccccc4=N[C]3[C@@](C(=O)OC)(c3cc4c(cc3OC)N(C)[C@H]3[C@@](O)(C(N)=O)[C@H](O)[C@]5(CC)C=CCN6CC[C@]43[C@@H]65)C2)C1 |  | inactive: 0.091%
76 | CCOCCCNC(=O)c1ccc(-n2c(-c3ccccc3)cc3c2CCC(C)C3)cc1 (centres undefined) |  | inactive: -1.61%
77 | CSc1cccc(NC(=O)Nc2ccccc2OCc2cc(=O)n3cc(C)ccc3n2)c1 |  | inactive: 8.9%
78 | COc1ccc(-c2csc3ncnc(Nc4cccc(OC)c4)c23)cc1 |  | inactive: -0.336%
79 | Cc1oc(-c2ccc(C(=O)NCc3ccccc3)cc2)nc1CN1CCc2ccccc21 |  | inactive: 0.945%
80 | COc1ccc(-c2nc3ccccc3s2)cc1NC(=O)c1ccccc1F | inactive | 
81 | O=C(Cc1cccs1)NC1CC(=O)N(c2ccc(F)cc2)C1 (centres undefined) |  | inactive: 0.0491%
82 | COc1ccc(NC(=O)CCNS(=O)(=O)c2ccc3c(c2)CCCC(=O)N3)cc1Cl |  | inactive: 11.5%
83 | O=C(NCc1ccc(Cl)cc1)NCc1noc2ccccc12 |  | inactive: 4.16%
84 | Cc1ccc2c(c1)C(c1ccc(F)cc1)N(C(=O)c1ccc(S(=O)(=O)N3CCCCC3)cc1)CC(=O)N2 (centres undefined) |  | inactive: -4.83%
85 | COc1ccc(C(=O)Nc2ccc3nc(SCC(=O)N4CCc5ccccc54)sc3c2)cc1 | inactive | 
86 | CCc1ccc(S(=O)(=O)Nc2ccc3c(c2)n(C)c(=O)c(=O)n3C)cc1 |  | inactive: -1.25%
87 | CCC(=O)N1CCc2cc(Br)cc(S(=O)(=O)CCC(=O)N3CCN(c4cccc(C)c4)C(C)C3)c21 (centres undefined) |  | inactive: -21.3%
88 | Cc1ccc(S(=O)(=O)c2nnn(-c3ccc(F)c(Cl)c3)c2N)cc1 |  | inactive: -2.76%
89 | Cc1cc(OCC(=O)Nc2cc(-c3nc4ncccc4o3)ccc2C)ccc1Cl |  | inactive: 13.1%
90 | COc1ccc(-n2nc3cc(C)c(NC(=O)c4ccc(-c5ccc(Cl)cc5)o4)cc3n2)cc1 | inactive | 
91 | COC(=O)c1ccccc1NC(=O)C1=CC(c2cccs2)=NS(=O)(=O)N1C |  | inactive: 1.47%
92 | COc1ccc(CCNC(=O)c2nc(-c3ccc(Cl)cc3)n3c2CCCCC3)c(OC)c1 |  | inactive: 5.8%
93 | Cc1cccc(C)c1Nc1c(-c2ccccn2)nc2c(C)cccn12 |  | inactive: -5.47%
94 | CCOc1ccc2nc(N3CCCC(C(=O)NCCc4ccc(OCC)c(OCC)c4)C3)sc2c1 (centres undefined) |  | inactive: 1.11%
